Single values of this set are uncertain.
test: amyloid nucleation score relative to library mode (yeast Sup35 reporter selection) (log enrichment difference); higher = more amyloid nucleation; sequences are the first 22 residues of the Bri2 peptide extended by up to 12 random residues; settings: random library (experiment): 1;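 active = nucleation score significantly above 0 at FDR 0.05; inactive = not significantly above 0 or absent from output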
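Further: [psi-pin-] Saccharomyces cerevisiae expressing SupN fusions, induced by 100 µM Cu2SO4, selected 7 d at 30 °C without adenine and uracil, scored by deep sequencing of output versus input.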

| Sequence | amyloid nucleation score |
| --- | --- |
| EASNCFAIRHFENKFAVETLICLLARTM | inactive |
| EASNCFAIRHFENKFAVETLICQTFQ | 3.76 |
| EASNCFAIRHFENKFAVETLICKYRCCGDAARHP | 3.91 |
| EASNCFAIRHFENKFAVETLICCVLMLVTRFPGI | inactive |
| EASNCFAIRHFENKFAVETLICPKSRNTVSMWRS | inactive |
| EASNCFAIRHFENKFAVETLICYCDIDIV | inactive |
| EASNCFAIRHFENKFAVETLICNVG | inactive |
| EASNCFAIRHFENKFAVETLICVICTTEVTLYVW | inactive |
| EASNCFAIRHFENKFAVETLICACE | 0.547 |
| EASNCFAIRHFENKFAVETLICGTSLGSWSSGMG | inactive |
| EASNCFAIRHFENKFAVETLICLGAVTLVKIADT | 4.68 |
| EASNCFAIRHFENKFAVETLICVGETALSRKGAR | 0.243 |
| EASNCFAIRHFENKFAVETLICRLEPSCEWEGG | inactive |
| EASNCFAIRHFENKFAVETLICRDRA | -0.0935 |
| EASNCFAIRHFENKFAVETLICAVFMWWTIPLGW | inactive |
| EASNCFAIRHFENKFAVETLICRPFGTQQLCLVG | 0.582 |
| EASNCFAIRHFENKFAVETLICPD | inactive |
| EASNCFAIRHFENKFAVETLICAGLRYYVGHVMW | inactive |
| EASNCFAIRHFENKFAVETLICLCHWRNWCMVVV | inactive |
| EASNCFAIRHFENKFAVETLICNRGRVQRSLVNS | inactive |
| EASNCFAIRHFENKFAVETLICYRVCVWGVQAKS | inactive |
| EASNCFAIRHFENKFAVETLICIRRGKCKRGNLW | inactive |
| EASNCFAIRHFENKFAVETLICLCAV | 0.565 |

| Sequence | amyloid nucleation score |
| --- | --- |
| EASNCFAIRHFENKFAVETLICASHVSLVRGTLE | 5.51 |
| EASNCFAIRHFENKFAVETLICQPGVFVVGFVIG | inactive |
| EASNCFAIRHFENKFAVETLICNKSRVPFRMGCG | inactive |
| EASNCFAIRHFENKFAVETLICCDQPDARTSHGE | inactive |
| EASNCFAIRHFENKFAVETLICDYSKGRICKLAQ | inactive |
| EASNCFAIRHFENKFAVETLICALGVYGAGRLLM | inactive |
| EASNCFAIRHFENKFAVETLICGIRS | inactive |
| EASNCFAIRHFENKFAVETLICYIPLVLCTMYGV | 4.84 |
| EASNCFAIRHFENKFAVETLICLINIHI | 6 |
| EASNCFAIRHFENKFAVETLICFSMRTRSGVGCS | 4.4 |
| EASNCFAIRHFENKFAVETLICVTRCWGKRVCSC | inactive |
| EASNCFAIRHFENKFAVETLICRAERCKRSVAAL | inactive |
| EASNCFAIRHFENKFAVETLICLKRVASGLRHVG | inactive |
| EASNCFAIRHFENKFAVETLICFMLASLRRMSER | -0.463 |
| EASNCFAIRHFENKFAVETLICAGISRD | inactive |
| EASNCFAIRHFENKFAVETLICNAMFP | 5.58 |
| EASNCFAIRHFENKFAVETLICLSNAVRCGNLGR | inactive |
| EASNCFAIRHFENKFAVETLICVARQKAVNGRTN | inactive |
| EASNCFAIRHFENKFAVETLICLKDSRTKFTFRG | 4.14 |
| EASNCFAIRHFENKFAVETLICVRMALNFQRIMV | inactive |
| EASNCFAIRHFENKFAVETLICNCVDKLGRDSAR | 7.67 |
| EASNCFAIRHFENKFAVETLICVCIVPHTSSVKR | 4.52 |

same assay, conditions: random library (experiment): 2

| Sequence | amyloid nucleation score |
| --- | --- |
| EASNCFAIRHFENKFAVETLICVVN | 1.63 |
| EASNCFAIRHFENKFAVETLICKLKQLLAFIWFF | inactive |
| EASNCFAIRHFENKFAVETLICCSIHFRILRSSV | 4.03 |
| EASNCFAIRHFENKFAVETLICRLHYSKFFICRR | inactive |
| EASNCFAIRHFENKFAVETLICVYSYCWRRLIAN | inactive |
| EASNCFAIRHFENKFAVETLICWRDRAYNKSCWY | 4.4 |
| EASNCFAIRHFENKFAVETLICFHIRM | 3.63 |
| EASNCFAIRHFENKFAVETLICTMFTL | 7.57 |
| EASNCFAIRHFENKFAVETLICWTFNSVCDYLVM | 0.727 |
| EASNCFAIRHFENKFAVETLICRLIASYI | inactive |
| EASNCFAIRHFENKFAVETLICYVNAMHRGRDQE | 6.53 |
| EASNCFAIRHFENKFAVETLICGYVCFRCCGRMW | inactive |
| EASNCFAIRHFENKFAVETLICFNNCSYDAMPNW | 8.2 |
| EASNCFAIRHFENKFAVETLICMINDSYIMIEVK | 0.456 |
| EASNCFAIRHFENKFAVETLICFKGNTAVRWLWG | 3.79 |
| EASNCFAIRHFENKFAVETLICIMVWV | -0.482 |
| EASNCFAIRHFENKFAVETLICYAYWHFNRVTRW | 0.528 |
| EASNCFAIRHFENKFAVETLICREWLRCGKSKRS | inactive |
| EASNCFAIRHFENKFAVETLICLMDSYGLLMSHR | 1.14 |
| EASNCFAIRHFENKFAVETLICFVV | inactive |
| EASNCFAIRHFENKFAVETLICIWNGYFLFVMVR | inactive |
| EASNCFAIRHFENKFAVETLICRSV | inactive |

same assay, conditions: random library (experiment): 3

| Sequence | amyloid nucleation score |
| --- | --- |
| EASNCFAIRHFENKFAVETLICLTSTGSVVWTWG | inactive |
| EASNCFAIRHFENKFAVETLICDTRFVISKMWGC | 5.25 |
| EASNCFAIRHFENKFAVETLICLSMTSF | 4.77 |
| EASNCFAIRHFENKFAVETLICCDYDTNYSFRVV | 1.54 |
| EASNCFAIRHFENKFAVETLICTAKNRRSVVMMA | inactive |
| EASNCFAIRHFENKFAVETLICEWYRYHR | inactive |
| EASNCFAIRHFENKFAVETLICYWILCVDGEACV | 1.67 |
| EASNCFAIRHFENKFAVETLICWRCSLQYNVTV | inactive |
| EASNCFAIRHFENKFAVETLICMTKMRDRLSLGR | 1.15 |
| EASNCFAIRHFENKFAVETLICFVRTLVGSLSVA | inactive |
| EASNCFAIRHFENKFAVETLICRYKCFLYYIQDG | inactive |
| EASNCFAIRHFENKFAVETLICNIVCVRRLSLVS | inactive |
| EASNCFAIRHFENKFAVETLICQPGWE | inactive |
| EASNCFAIRHFENKFAVETLICWAMLTLDRKLMV | inactive |
| EASNCFAIRHFENKFAVETLICVQMMGKILISSC | inactive |
| EASNCFAIRHFENKFAVETLICVTDLGGTSRNEA | inactive |
| EASNCFAIRHFENKFAVETLICINVA | inactive |
| EASNCFAIRHFENKFAVETLICVVGGGRLCAMRA | inactive |
| EASNCFAIRHFENKFAVETLICYDGWMMMVDLGR | inactive |
| EASNCFAIRHFENKFAVETLICGLNKSVMGIEQC | inactive |
